From PMC8870497
Like-named read-outs stand apart in the source and are kept apart here. Results are given in words; binding and its absence hold for the method and conditions named. Binding seen in cells or lysates may run through a third protein. Some binding calls cover weakened binding; strength is not graded here. For some of these results: Tags and fused reporters may be left off the sequences shown.

What was measured:
Assay in all cases: co-IP
[1] = biological target: FLAG-tagged, codon-optimised vaccinia virus protein K7 (vaccinia virus) (UniProt P68466)
[2] = biological target: Myc-tagged β-TrCP (UniProt Q9Y297)
[3] = biological target: T1, Myc-tagged human Spir-2 (human) (UniProt Q8WWL2)
T1 sequence: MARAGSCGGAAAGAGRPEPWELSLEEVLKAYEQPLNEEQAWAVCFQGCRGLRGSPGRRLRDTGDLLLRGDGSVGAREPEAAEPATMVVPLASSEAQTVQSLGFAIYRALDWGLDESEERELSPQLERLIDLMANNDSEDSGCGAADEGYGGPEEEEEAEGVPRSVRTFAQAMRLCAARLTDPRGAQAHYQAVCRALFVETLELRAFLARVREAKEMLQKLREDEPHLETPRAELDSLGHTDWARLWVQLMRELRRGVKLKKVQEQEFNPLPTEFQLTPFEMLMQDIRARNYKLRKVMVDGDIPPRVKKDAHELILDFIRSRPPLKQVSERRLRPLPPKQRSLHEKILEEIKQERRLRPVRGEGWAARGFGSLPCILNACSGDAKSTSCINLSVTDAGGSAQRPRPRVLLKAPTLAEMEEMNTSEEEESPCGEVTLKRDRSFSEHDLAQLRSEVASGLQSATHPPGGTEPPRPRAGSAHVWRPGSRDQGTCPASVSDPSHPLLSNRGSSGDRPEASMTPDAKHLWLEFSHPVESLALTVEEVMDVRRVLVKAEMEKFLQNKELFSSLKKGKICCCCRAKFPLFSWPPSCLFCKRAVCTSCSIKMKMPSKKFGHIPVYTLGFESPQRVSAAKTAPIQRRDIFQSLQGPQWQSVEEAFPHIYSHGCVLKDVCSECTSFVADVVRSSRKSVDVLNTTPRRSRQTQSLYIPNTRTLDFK

[4] = biological target: HA-tagged K7 expressed from vaccinia virus vHA-K7 (vaccinia virus strain Western Reserve) (UniProt P68466)
[5] = biological target: T2, Myc-tagged TAB2, in vitro translated (UniProt Q9NYJ8)
T2 sequence: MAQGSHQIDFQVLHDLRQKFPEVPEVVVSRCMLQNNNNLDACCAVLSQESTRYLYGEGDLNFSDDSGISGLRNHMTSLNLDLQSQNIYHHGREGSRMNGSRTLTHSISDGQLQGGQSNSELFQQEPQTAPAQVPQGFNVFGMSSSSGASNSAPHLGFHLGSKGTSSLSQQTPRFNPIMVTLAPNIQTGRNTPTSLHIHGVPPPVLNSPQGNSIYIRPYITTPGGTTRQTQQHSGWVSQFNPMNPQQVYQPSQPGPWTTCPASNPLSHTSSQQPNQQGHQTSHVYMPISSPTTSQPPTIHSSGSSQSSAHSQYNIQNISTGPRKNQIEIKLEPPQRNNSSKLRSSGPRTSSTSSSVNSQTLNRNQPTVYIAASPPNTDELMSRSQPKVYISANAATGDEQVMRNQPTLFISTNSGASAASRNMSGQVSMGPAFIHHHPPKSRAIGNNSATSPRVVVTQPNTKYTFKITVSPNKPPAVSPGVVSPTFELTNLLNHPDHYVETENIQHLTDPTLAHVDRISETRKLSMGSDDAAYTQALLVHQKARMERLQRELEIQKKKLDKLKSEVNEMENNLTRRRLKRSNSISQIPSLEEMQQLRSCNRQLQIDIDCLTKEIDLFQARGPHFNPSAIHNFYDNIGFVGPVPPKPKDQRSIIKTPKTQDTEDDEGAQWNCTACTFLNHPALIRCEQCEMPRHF

[6] = biological target: DDX3, in vitro translated (UniProt O00571)
[7] = biological target: FLAG-tagged K7, in vitro translated (vaccinia virus) (UniProt P68466)
[8] = biological target: FLAG-tagged, codon-optimised vaccinia virus protein K7 (vaccinia virus) (UniProt P68466); remark: listed apart in the source
[9] = biological target: FLAG-tagged K7, in vitro translated (vaccinia virus) (UniProt P68466); remark: listed apart in the source

## HA-tagged DDX3 (from UniProt O00571 1-662)
[1]
  binding: binds

## Myc-tagged β-TrCP (from UniProt Q9Y297 1-605)
[1]
  binding: no binding

## FLAG-tagged, codon-optimised vaccinia virus protein K7 (from UniProt P68466 1-149)
[2]
  binding: no binding
[3]
  binding: no binding

## endogenous DDX3 (from UniProt O00571 1-662)
[4]
  binding: binds

## FLAG-tagged K7, in vitro translated (from UniProt P68466 1-149)
[5]
  binding: no binding
[6]
  binding: binds

## DDX3, in vitro translated (from UniProt O00571 1-662)
[7]
  binding: binds

B1: Myc-tagged human Spir-2 (protein, UniProt Q8WWL2 1-714)
chain: MARAGSCGGAAAGAGRPEPWELSLEEVLKAYEQPLNEEQAWAVCFQGCRGLRGSPGRRLRDTGDLLLRGDGSVGAREPEAAEPATMVVPLASSEAQTVQSLGFAIYRALDWGLDESEERELSPQLERLIDLMANNDSEDSGCGAADEGYGGPEEEEEAEGVPRSVRTFAQAMRLCAARLTDPRGAQAHYQAVCRALFVETLELRAFLARVREAKEMLQKLREDEPHLETPRAELDSLGHTDWARLWVQLMRELRRGVKLKKVQEQEFNPLPTEFQLTPFEMLMQDIRARNYKLRKVMVDGDIPPRVKKDAHELILDFIRSRPPLKQVSERRLRPLPPKQRSLHEKILEEIKQERRLRPVRGEGWAARGFGSLPCILNACSGDAKSTSCINLSVTDAGGSAQRPRPRVLLKAPTLAEMEEMNTSEEEESPCGEVTLKRDRSFSEHDLAQLRSEVASGLQSATHPPGGTEPPRPRAGSAHVWRPGSRDQGTCPASVSDPSHPLLSNRGSSGDRPEASMTPDAKHLWLEFSHPVESLALTVEEVMDVRRVLVKAEMEKFLQNKELFSSLKKGKICCCCRAKFPLFSWPPSCLFCKRAVCTSCSIKMKMPSKKFGHIPVYTLGFESPQRVSAAKTAPIQRRDIFQSLQGPQWQSVEEAFPHIYSHGCVLKDVCSECTSFVADVVRSSRKSVDVLNTTPRRSRQTQSLYIPNTRTLDFK
[8]
  binding: no binding

B2: Myc-tagged TAB2, in vitro translated (protein, UniProt Q9NYJ8 1-693)
chain: MAQGSHQIDFQVLHDLRQKFPEVPEVVVSRCMLQNNNNLDACCAVLSQESTRYLYGEGDLNFSDDSGISGLRNHMTSLNLDLQSQNIYHHGREGSRMNGSRTLTHSISDGQLQGGQSNSELFQQEPQTAPAQVPQGFNVFGMSSSSGASNSAPHLGFHLGSKGTSSLSQQTPRFNPIMVTLAPNIQTGRNTPTSLHIHGVPPPVLNSPQGNSIYIRPYITTPGGTTRQTQQHSGWVSQFNPMNPQQVYQPSQPGPWTTCPASNPLSHTSSQQPNQQGHQTSHVYMPISSPTTSQPPTIHSSGSSQSSAHSQYNIQNISTGPRKNQIEIKLEPPQRNNSSKLRSSGPRTSSTSSSVNSQTLNRNQPTVYIAASPPNTDELMSRSQPKVYISANAATGDEQVMRNQPTLFISTNSGASAASRNMSGQVSMGPAFIHHHPPKSRAIGNNSATSPRVVVTQPNTKYTFKITVSPNKPPAVSPGVVSPTFELTNLLNHPDHYVETENIQHLTDPTLAHVDRISETRKLSMGSDDAAYTQALLVHQKARMERLQRELEIQKKKLDKLKSEVNEMENNLTRRRLKRSNSISQIPSLEEMQQLRSCNRQLQIDIDCLTKEIDLFQARGPHFNPSAIHNFYDNIGFVGPVPPKPKDQRSIIKTPKTQDTEDDEGAQWNCTACTFLNHPALIRCEQCEMPRHF
[9]
  binding: no binding
